According to PubChem BioAssay AID651820 (National Center for Advancing Translational Sciences (NCATS), 2012):
Among all 340,000 compounds or so, about 12,000 (3.5%) were called active. The shares of active, inactive and inconclusive entries below differ from those in the screen. The call rests on the fitted dose curve; in most records, active means well fitted inhibition curve with a large enough effect; inconclusive means small, poorly fitted or top-dose-only effect, or another doubt; inactive means no such curve, though single readings can be large or run the other way. Potencies of inconclusive entries are left out as doubtful fits.
On the % scale 0 is the no-effect control and ±100 the full control effect; potency means the concentration at half of the fitted maximal effect; tags describe the fitted curve by direction and shape.

Assay: qHTS Assay for Inhibitors of Hepatitis C Virus (HCV)
Settings: Huh7.5.1 HCVcc-Cre (HCVcc is cell-culture hepatitis C virus) infection, luciferase reporter, 44 h; activity change, negative = inhibition: at 41.8 µM (top of the series) unless noted
How it was run: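 Luciferase read-out (15 sec integration) after a 15 min room-temperature substrate step quantifies HCVcc-Cre infection. Cells, 1,000 per well, had compound added 4 h post-plating, then virus at ~0.5 moi, and were cultured 44 h.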
With `O=[N+]([O-])c1cc(-c2csc(NC(CO)c3nc4ccccc4n3CCOCCO)n2)ccc1Cl` (stereo unspecified) the Potency was inconclusive [inhibitor, single point].
With `CCOc1ccc(OCC)c(NC(=O)C2CCCN(S(=O)(=O)c3cccs3)C2)c1` (stereo unspecified) the Potency was inconclusive [inhibitor, single point].
For `COc1ccccc1NC(=O)CSc1nnc(Cn2nnc(-c3ccccc3)n2)n1-c1ccccc1`, the Potency was active: 31.6 µM.
In the case of `CCOc1ccccc1C(=O)NCc1ccc2c(c1)OCO2`, the Potency is reported as inconclusive [inhibitor, single point].
With `O=C(Nc1cccc(C(F)(F)F)c1)c1ccco1` the Potency was active: 10 µM.
With `CCOc1ccc2nc(SCC(=O)NCc3ccc4c(c3)OCO4)[nH]c2c1` the Potency was active: 3.98 µM.
In the case of `CN(C)c1cccc(C(=O)OCc2cc(=O)oc3cc(O)ccc23)c1`, the Potency is reported as inconclusive [inhibitor, partial curve, poor fit].
For `Cc1ccc2c(Cl)c(C(=O)Nc3cccnc3)sc2c1`, the Potency was inconclusive [inhibitor, single point].
For `CCN(CC)c1nc(Nc2ccc(Cl)cc2)nc(OCC#N)n1`, the Potency was inconclusive [inhibitor, single point].
For `CCCCOc1ccc(-c2c(C#N)c(N)nc(SCC(N)=O)c2C#N)cc1`, the Potency was active: 5.01 µM.
In the case of `Cc1cccc(C)c1NC(=O)c1c(C)nn(-c2ccccc2)c1Cl`, the Potency is reported as inconclusive [inhibitor, partial curve].
In the case of `O=C(NCCCN1CCN(c2cccc(Cl)c2)CC1)C1(S(=O)(=O)c2ccc(Cl)cc2)CC1`, the Potency is reported as inconclusive [inhibitor, partial curve, poor fit].
For `CCN(C(=O)c1cccs1)c1nc(-c2ccc(OC)cc2)cs1`, the Potency was inconclusive [inhibitor, single point].
In the case of `COc1ccccc1NC(=O)CSc1nnc(COc2ccc(Cl)cc2)n1Cc1ccco1`, the Potency is reported as active: 11.2 µM.
For `COCCCNC(=O)c1ccc(Cn2c(=O)c3ccccc3n(Cc3cc(C)ccc3C)c2=O)cc1`, the Potency was inconclusive [inhibitor, single point].
With `COc1ccc(NC(=O)c2ccc(CNS(=O)(=O)c3cccc(OC)c3)cc2)cc1` the Potency was inconclusive [inhibitor, single point].
With `CC(=O)c1ccc(N2Cc3ccccc3/C2=N\C(=O)Nc2ccc(Cl)cc2)cc1` the Potency was “inactive”.
For `CCCCCCCNC(=O)C1(CC2CC(c3cccc(Br)c3)=NO2)CCN(C(=O)c2cc(OCC)c(OCC)c(OCC)c2)CC1` (stereo unspecified), the Potency was inconclusive [inhibitor, partial curve].
With `CCN(CC(=O)NCc1ccc(Cl)cc1)C(=O)CSc1cc(C)ccc1C` the Potency was inconclusive [inhibitor, single point].
In the case of `COCCn1c(SCC(=O)Nc2ccccc2OC)nc2c(oc3ccccc32)c1=O`, the Potency is reported as inconclusive [inhibitor, single point].
In the case of `CN(C)c1ccc(/C=C(\Cl)c2nc3ccccc3s2)cc1`, the Potency is reported as inconclusive [inhibitor, partial curve, poor fit].
For `Cc1ccc2c(c1)[C@H]1[C@H](CO2)[C@H](c2ccccc2)[C@]2(C)C(=O)Nc3cc(F)ccc3C(=O)N12`, the Potency was inconclusive [inhibitor, single point].
For `NC(=O)c1ccc(NC(=O)C#Cc2ccccc2)cc1`, the Potency was inconclusive [inhibitor, single point].
For `CCCOc1ccc(N2C(=O)CC(N(CCc3ccc(OC)cc3)C(=O)c3cccc(F)c3)C2=O)cc1` (stereo unspecified), the Potency was inconclusive [inhibitor, partial curve].
With `Cc1cc(C(=O)CCl)c(C)n1Cc1ccco1` the Potency was inconclusive [inhibitor, single point].
With `COc1ccccc1N(C)S(=O)(=O)c1ccc(C(=O)Nc2ccc(C(N)=O)cc2)cc1` the Potency was inconclusive [inhibitor, single point].
For `CN(C)C(CNc1ncnc2sc3c(c12)CCCCC3)c1ccco1` (stereo unspecified), the Potency was inconclusive [inhibitor, partial curve].
With `O=C(Nc1cccnc1)c1ccc(S(=O)(=O)c2ccc(Cl)cc2)cc1` the Potency was inconclusive [inhibitor, single point].
In the case of `Cc1cc(C)n2ncc(/C(N)=N/OC(=O)c3ccccc3F)c2n1`, the Potency is reported as “inactive”.
For `COc1ccc(-c2[nH]c(-c3ccc(C)cc3)nc2SCC(=O)Nc2nccs2)cc1`, the Potency was inconclusive [inhibitor, partial curve, poor fit].
In the case of `Fc1ccccc1-c1csc(=Nc2cccnc2)n1CC1CCCO1` (stereo unspecified), the Potency is reported as inconclusive [inhibitor, partial curve].
For `Cc1ccc(S(=O)(=O)N2CCN(Cc3ccccc3)CC2)c(C)c1N(C)S(=O)(=O)c1ccccc1`, the Potency was inconclusive [inhibitor, partial curve].
With `O=S(=O)(c1ccc2ccccc2c1)N1CCC(c2nc(-c3ccncc3)no2)CC1` the Potency was active: 8.91 µM.
With `Cc1ccc(C(=O)CN(CCC(=O)O)C(=O)c2ccncc2)cc1` the Potency was “inactive”.
For `O=C(OCC(=O)N1CCOCC1)c1ccccc1O`, the Potency was “inactive”.
In the case of `O=C(CCOc1ccccc1F)N1CCN(c2ccccc2O)CC1`, the Potency is reported as inconclusive [inhibitor, single point].
In the case of `CC(C)(C)CC(C)(C)NCC(O)COc1c(F)cc(Br)cc1F` (stereo unspecified), the Potency is reported as inconclusive [inhibitor, single point].
With `COc1ccc(OC)c(NC(=O)CSc2nnnn2-c2ccc3c(c2)OCO3)c1` the Potency was inconclusive [inhibitor, single point].
With `CC/C(=C(\c1ccccc1)c1ccc(OCCN(C)C)cc1)c1ccccc1` the Potency was active: 3.16 µM.
With `CCOC(=O)/C(=C/c1ccc(OC(F)F)cc1)C1=Nn2c(nnc2-c2ccc(Cl)cc2)SC1` the activity change, negative = inhibition was inconclusive: -77% [inhibitor].
In the case of `O=S(=O)(Nc1ccc2c(c1)OCO2)c1cccs1`, the Potency is reported as inconclusive [inhibitor, single point].
With `Cc1ccc2c(c1)c1c3n2CCN=C3CCC1` the Potency was inconclusive [inhibitor, single point].
In the case of `COc1ccc(/C=C/C(=O)c2ccccc2O)cc1CN1CCOCC1`, the Potency is reported as inconclusive [inhibitor, single point].
With `COc1cc(OC)cc(C(=O)Nc2ccc3c(c2)CCCN3C(=O)c2cccs2)c1` the Potency was active: 14.1 µM.
With `CC(=O)NCC1CCCN(Cc2cn(-c3ccccc3)nc2-c2ccc3c(c2)OCO3)C1` (stereo unspecified) the Potency was “inactive”.
In the case of `O=c1nc(-c2ccccc2)c2cc(Br)ccc2[nH]1`, the Potency is reported as “inactive”.
With `COc1ccc(C(C)=O)cc1CSc1nnc(Nc2ccccc2)s1` the Potency was inconclusive [inhibitor, partial curve].
With `COc1ccc(-n2cc(-c3ccccc3)[nH]c2=S)c(OC)c1` the Potency was inconclusive [inhibitor, full curve].
With `CCOC(=O)c1c(C)[nH]c(C(=O)OCc2csc(CC(=O)Nc3ccccc3C)n2)c1C` the Potency was inconclusive [inhibitor, full curve].
For `CCC(CO)Oc1cc(NC(=O)c2ccc([N+](=O)[O-])cc2)c2ncn(C(C)C)c2c1` (stereo unspecified), the Potency was “inactive”.
In the case of `O=[N+]([O-])c1ccc(S(=O)(=O)N2CCN(C3CCN(Cc4ccccc4)CC3)CC2)cc1`, the Potency is reported as inconclusive [inhibitor, single point].
For `COC(=O)C1=C(c2ccc(C(C)=O)cc2)C[C@@H]2CC[C@H]1N2C(=O)NCCOc1ccccc1Cl`, the Potency was inconclusive [inhibitor, single point].
For `CCCN(C1CCS(=O)(=O)C1)S(=O)(=O)c1ccc(F)cc1` (stereo unspecified), the Potency was “inactive”.
In the case of `CCOc1ccc(C2c3cc(OC)c(OC)cc3CC(=O)N2c2ccc(OC)cc2)cc1` (stereo unspecified), the Potency is reported as inconclusive [inhibitor, full curve, poor fit].
For `Cc1cc(C)n(-c2nc(NC(C)C)nc(NC(C)C)n2)n1`, the Potency was inconclusive [inhibitor, single point].
In the case of `COC(=O)C1=C(c2cc3ccccc3s2)C[C@@H]2CC[C@H]1N2C(=O)NCc1ccco1`, the Potency is reported as inconclusive [inhibitor, partial curve].
In the case of `CC(=O)c1cccc(NC(=O)/C=C/c2ccc(S(=O)(=O)N3CCOCC3)cc2)c1`, the Potency is reported as inconclusive [inhibitor, single point].
In the case of `COc1ccc2[nH]c(=O)c(CN(CCO)S(=O)(=O)c3ccc(C)cc3)cc2c1`, the Potency is reported as “inactive”.
With `CN(C)C(CNC(=O)c1cc(S(=O)(=O)N(C)c2ccccc2)ccc1Cl)c1cccs1` (stereo unspecified) the Potency was inconclusive [inhibitor, single point].
With `CCOc1ccc(C2c3c(oc4cc(C)c(C)cc4c3=O)C(=O)N2CCCN(C)C)cc1OC` (stereo unspecified) the Potency was “inactive”.
With `O=C1Nc2cc(C(=O)N3CCN(c4ccc(F)cc4)CC3)ccc2NC1CSCc1cccc(F)c1` (stereo unspecified) the Potency was inconclusive [inhibitor, partial curve].
With `CCOc1cc(/C=N/NC(=O)c2cccnc2)ccc1OCc1ccc(C(=O)OC)o1` the Potency was “inactive”.
With `COc1ccc(N2CCN(C(c3ccccc3OC)c3nnnn3C3CCCC3)CC2)cc1` (stereo unspecified) the Potency was inconclusive [inhibitor, single point].
In the case of `CCCc1cc(=O)[nH]c(SCC(=O)c2[nH]c(C)c(C(=O)OCC)c2C)n1`, the Potency is reported as active: 11.2 µM.
For `COc1ccc(OC)c(N/C=C/C(=C(C#N)C#N)N(C)C)c1`, the Potency was inconclusive [inhibitor, partial curve].
For `COC(C(=O)Nc1ccc(S(=O)(=O)Nc2ccc(F)cc2)cc1)c1ccccc1` (stereo unspecified), the Potency was “inactive”.
